{"source": "the supplement of paper PMC9446081", "note": "In all, about 39,000 compounds went through this assay and about 220 (0.56%) showed activity. The list shows a part of the results.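 Also: static incubation at 37 °C against the wild-type strain, values averaged over two biological replicates.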", "data": [{"tested_on": "Escherichia coli K-12 BW25113", "test": "relative growth (OD600 normalised to plate interquartile mean) (fraction); higher = less growth inhibition, active = 0.2 or less", "settings": "50 µM; LB; incubation time: overnight (16-24 h)", "values": [{"smiles": "COc1ccc(CN(C)C[C@@H]2OCCCC[C@H](C)Oc3ccc(NC(=O)c4ccccc4)cc3C(=O)N([C@@H](C)CO)C[C@H]2C)cc1", "relative growth": "inactive: 1.03"}, {"smiles": "COc1ccc(NC(=O)Nc2ccc3c(c2)C(=O)N([C@@H](C)CO)C[C@H](C)[C@H](CN(C)Cc2ccccc2)OCCCC[C@H](C)O3)cc1", "relative growth": "inactive: 0.99"}, {"smiles": "C[C@]1(C(=O)NCc2ccccc2)c2ccccc2C(=O)N(Cc2ccccc2)[C@H]1c1ccc(COC(=O)NCCCCCC(=O)NO)cc1", "relative growth": "inactive: 0.981"}, {"smiles": "CN(C)CC(=O)N1[C@@H]2Cn3c(ccc(C4=CCCC4)c3=O)[C@H]1[C@@H](C(=O)NCC1CC1)[C@@H]2CO", "relative growth": "inactive: 0.998"}, {"smiles": "C[C@@H]1CCCCO[C@H](CN(C)Cc2ccc(C(F)(F)F)cc2)[C@H](C)CN([C@@H](C)CO)C(=O)c2cc(NC(=O)Nc3cccc4ccccc34)ccc2O1", "relative growth": "inactive: 0.98"}, {"smiles": "C[C@@H]1CN([C@H](C)CO)C(=O)c2cccc(NS(=O)(=O)c3ccccc3)c2O[C@@H]1CN(C)C(=O)Nc1cccc2ccccc12", "relative growth": "inactive: 0.956"}, {"smiles": "Cc1cccnc1[C@@H](NC(=O)C1CCN(CCOc2ccc(Cl)cc2Cl)CC1)c1ccc(F)cc1", "relative growth": "inactive: 0.897"}, {"smiles": "C[C@@H]1CN([C@H](C)CO)C(=O)c2cc(NS(=O)(=O)c3ccc(F)cc3)ccc2O[C@@H]1CN(C)Cc1ccc(Cl)c(Cl)c1", "relative growth": "inactive: 1.03"}, {"smiles": "CCC(=O)OC1(C(=O)CCl)C(C)CC2C3CCC4=CC(=O)C=CC4(C)C3(F)C(O)CC21C", "note": "(stereo unspecified)", "relative growth": "inactive: 1.02"}, {"smiles": "CC(C)NC(=O)N(C)C[C@@H]1Oc2ncc(-c3ccc(C(=O)N(C)C)cc3)cc2C(=O)N([C@@H](C)CO)C[C@@H]1C", "relative growth": "inactive: 0.995"}, {"smiles": "C[C@@H]1CCCCO[C@@H](CN(C)CC2CCCCC2)[C@@H](C)CN([C@@H](C)CO)C(=O)c2cc(NS(=O)(=O)c3cccs3)ccc2O1", "relative growth": "inactive: 0.911"}, {"smiles": "Cc1ccc(-c2ccc3c(c2)O[C@H](CN(C)C(=O)NC(C)C)[C@@H](C)CN([C@@H](C)CO)S3(=O)=O)cc1", "relative growth": "inactive: 1"}, {"smiles": "O=C(NO)c1cccc(C(=O)N/N=C/[C@@H](O)[C@H](O)[C@H](O)CO)c1", "relative growth": "inactive: 1.04"}, {"smiles": "CNC[C@@H](O)c1ccc(O)c(O)c1", "relative growth": "inactive: 1"}, {"smiles": "C[C@@H]1CCCCO[C@@H](CN(C)C(=O)Nc2ccccc2)[C@H](C)CN([C@H](C)CO)C(=O)c2cc(NS(=O)(=O)c3ccc(Cl)cc3)ccc2O1", "relative growth": "inactive: 1.01"}, {"smiles": "CC(C)(C)NC(=O)C[n+]1cccc(/C=N/O)c1", "relative growth": "inactive: 1.03"}, {"smiles": "C[C@H](CO)N1C[C@H](C)[C@H](CN(C)CC2CC2)OCCCC[C@H](C)Oc2ccc(NC(=O)Nc3ccccc3)cc2C1=O", "relative growth": "inactive: 0.993"}, {"smiles": "COc1ccc(S(=O)(=O)N(C)C[C@H]2Oc3ccc(NS(=O)(=O)c4cn(C)cn4)cc3CC(=O)N([C@H](C)CO)C[C@H]2C)cc1", "relative growth": "inactive: 0.998"}, {"smiles": "C[C@@H]1CN([C@H](C)CO)C(=O)c2cccc(NS(=O)(=O)c3ccc(Cl)cc3)c2O[C@H]1CN(C)Cc1ccc(C(=O)Nc2ccccc2N)cc1", "relative growth": "inactive: 1.05"}, {"smiles": "Cc1noc(C)c1S(=O)(=O)N(C)C[C@H]1OCCCC[C@@H](C)Oc2ccc(NC(=O)Nc3cccc4ccccc34)cc2C(=O)N([C@@H](C)CO)C[C@@H]1C", "relative growth": "inactive: 0.95"}, {"smiles": "C[C@H]1CCCCO[C@H](CN(C)C(=O)Nc2ccc(C(F)(F)F)cc2)[C@@H](C)CN([C@@H](C)CO)C(=O)c2cc(NS(=O)(=O)c3ccccc3)ccc2O1", "relative growth": "inactive: 1.02"}, {"smiles": "C[C@@H]1CN([C@@H](C)CO)C(=O)c2cc(N(C)C)ccc2O[C@H]1CN(C)S(=O)(=O)c1ccc(Cl)cc1", "relative growth": "inactive: 0.994"}, {"smiles": "CC=Cc1ccc2n(c1=O)C[C@H]1[C@H](CO)[C@@H](C(=O)NCCc3cn(C)cn3)[C@@H]2N1C(=O)CC", "relative growth": "inactive: 1.05"}, {"smiles": "C[C@H](CO)N1C[C@H](C)[C@H](CN(C)C(=O)Nc2ccc(F)cc2)OCCCC[C@H](C)Oc2ccc(NC(=O)CCC(F)(F)F)cc2C1=O", "relative growth": "inactive: 0.989"}, {"smiles": "Cc1noc(C)c1NC(=O)Nc1ccc2c(c1)CC(=O)N([C@@H](C)CO)C[C@@H](C)[C@H](CN(C)C(=O)NC(C)C)O2", "relative growth": "inactive: 1.04"}, {"smiles": "NCC[C@@H](O)c1ccc(Br)cc1", "relative growth": "inactive: 0.983"}, {"smiles": "C[C@H]1CN([C@@H](C)CO)C(=O)c2cc(NC(=O)Nc3ccc(F)cc3)ccc2O[C@H]1CN(C)Cc1ccc(-c2ccccc2)cc1", "relative growth": "inactive: 0.994"}, {"smiles": "O=c1[nH]c(=S)nc2[nH][nH]cc1-2", "relative growth": "inactive: 0.997"}, {"smiles": "Cc1noc(C)c1NC(=O)Nc1ccc2c(c1)C(=O)N([C@@H](C)CO)C[C@H](C)[C@H](CN(C)S(=O)(=O)c1ccccc1)OCCCC[C@@H](C)O2", "relative growth": "inactive: 1.01"}, {"smiles": "Cc1noc(C)c1S(=O)(=O)Nc1ccc2c(c1)CC(=O)N([C@H](C)CO)C[C@H](C)[C@H](CN(C)C(=O)NC(C)C)O2", "relative growth": "inactive: 0.967"}, {"smiles": "C[C@@H]1CCCCO[C@H](CN(C)Cc2ccc(C(F)(F)F)cc2)[C@H](C)CN([C@H](C)CO)C(=O)c2cc(NC(=O)Nc3ccc(C(F)(F)F)cc3)ccc2O1", "relative growth": "inactive: 1.07"}, {"smiles": "Oc1ccc(Cl)c2cccnc12", "relative growth": "active: 0.0534"}, {"smiles": "COc1ccc2c3c([nH]c2c1)[C@H](CO)N(C[C@]13CN(C1)S(=O)(=O)c1cn(cn1)C)C(=O)Nc1ccc(cc1)F", "relative growth": "inactive: 0.981"}, {"smiles": "CC(=O)N(O)CCCCCNC(=O)CCC(=O)N(O)CCCCCNC(=O)CCC(=O)N(O)CCCCCN.CS(=O)(=O)O", "relative growth": "inactive: 0.948"}, {"smiles": "Cc1ccc(S(=O)(=O)N(C)C[C@@H]2Oc3ccc(NS(=O)(=O)c4ccccc4)cc3CC(=O)N([C@@H](C)CO)C[C@@H]2C)cc1", "relative growth": "inactive: 0.992"}, {"smiles": "C[C@@H]1CCCCO[C@@H](CN(C)Cc2ccc(C(F)(F)F)cc2)[C@@H](C)CN([C@H](C)CO)C(=O)c2cc(NC(=O)Nc3ccccc3)ccc2O1", "relative growth": "inactive: 1.04"}, {"smiles": "O=C(C[C@@H]1CC[C@@H](NC(=O)CN2CCOCC2)[C@@H](CO)O1)NCc1cccc(F)c1", "relative growth": "inactive: 1.01"}, {"smiles": "C[C@@H]1CCCCO[C@@H](CN(C)Cc2ccc(C(F)(F)F)cc2)[C@H](C)CN([C@H](C)CO)C(=O)c2cc(NS(=O)(=O)c3cn(C)cn3)ccc2O1", "relative growth": "inactive: 0.989"}, {"smiles": "Cc1ccc(S(=O)(=O)N(C)C[C@@H]2OCCCC[C@H](C)Oc3ccc(NC(=O)c4ccccc4)cc3C(=O)N([C@H](C)CO)C[C@@H]2C)cc1", "relative growth": "inactive: 1.02"}, {"smiles": "C[C@H]1CN([C@@H](C)CO)C(=O)c2cc(C#CC3(O)CCCC3)cnc2O[C@H]1CN(C)S(=O)(=O)c1cccc(F)c1", "relative growth": "inactive: 1"}, {"smiles": "CN(CC(=O)Nc1ccc(F)cc1F)S(=O)(=O)c1ccc2c(c1)c(=O)n(C)c(=O)n2C", "relative growth": "inactive: 1.04"}, {"smiles": "C[C@@H]1CN([C@@H](C)CO)C(=O)c2cccc(NS(C)(=O)=O)c2O[C@@H]1CN(C)C(=O)Nc1ccc(F)cc1", "relative growth": "inactive: 0.989"}, {"smiles": "NCc1cccc(-n2cccn2)c1", "relative growth": "inactive: 1.01"}, {"smiles": "C[C@H]1Cc2cc(S(=O)(=O)N(C)CC(=O)N3CCOCC3)ccc2N1C(=O)C1CC1", "relative growth": "inactive: 1"}, {"smiles": "Cc1noc(C)c1S(=O)(=O)Nc1ccc2c(c1)C(=O)N([C@H](C)CO)C[C@H](C)[C@H](CN(C)C(=O)Nc1ccccc1)OCCCC[C@@H](C)O2", "relative growth": "inactive: 1"}, {"smiles": "Cc1ccc(S(=O)(=O)Nc2cccc3c2O[C@@H](CN(C)Cc2ccc(Oc4ccccc4)cc2)[C@H](C)CN([C@@H](C)CO)C3=O)cc1", "relative growth": "inactive: 1.05"}, {"smiles": "C[C@H](CO)N1C[C@H](C)[C@H](CN(C)S(=O)(=O)c2ccc(F)cc2)Oc2ccc(NC(=O)Nc3cccc4ccccc34)cc2C1=O", "relative growth": "inactive: 1.03"}, {"smiles": "Cc1noc(C)c1NC(=O)Nc1ccc2c(c1)C(=O)N([C@@H](C)CO)C[C@H](C)[C@@H](CN(C)C(=O)Nc1cccc3ccccc13)O2", "relative growth": "inactive: 1.01"}, {"smiles": "C[C@@H]1CN([C@@H](C)CO)C(=O)CCCn2nncc2CO[C@H]1CN(C)Cc1ccc(C(=O)Nc2ccccc2N)cc1", "relative growth": "inactive: 0.987"}, {"smiles": "C[C@@H]1CN([C@H](C)CO)C(=O)Cc2cc(NS(=O)(=O)c3cccs3)ccc2O[C@H]1CN(C)Cc1ccc(Oc2ccccc2)cc1", "relative growth": "inactive: 0.994"}, {"smiles": "COc1ccc(S(=O)(=O)N(C)C[C@H]2Oc3ccc(NC(=O)Cc4ccccc4)cc3C(=O)N([C@H](C)CO)C[C@H]2C)cc1", "relative growth": "inactive: 1.03"}, {"smiles": "CN1C(=O)C[C@H](Nc2ccc(N(C)C)cc2)C1=O", "relative growth": "inactive: 0.983"}, {"smiles": "N=c1cc(N2CCCCC2)nc(N)n1OS(=O)(=O)O", "relative growth": "inactive: 0.993"}, {"smiles": "CN1CCN(C(=O)C[C@@H]2C=C[C@H](NC(=O)Cc3ccccn3)[C@@H](CO)O2)CC1", "relative growth": "inactive: 1.01"}, {"smiles": "CNCCC(Oc1ccc(C(F)(F)F)cc1)c1ccccc1.Cl", "note": "(stereo unspecified)", "relative growth": "inactive: 0.963"}, {"smiles": "NC(CO)(CO)CO.O=C(c1ccccc1)c1ccc2n1CCC2C(=O)O", "note": "(stereo unspecified)", "relative growth": "inactive: 0.914"}, {"smiles": "[N-]=[N+]=NCc1ccccc1C[C@@]1(C(=O)N2CCCCC2)N=C(c2ccc(OCCCO)cc2)O[C@@H]1c1ccccc1", "relative growth": "inactive: 1.03"}, {"smiles": "C[C@H]1CCCCO[C@@H](CN(C)C(=O)Nc2ccc(C(F)(F)F)cc2)[C@@H](C)CN([C@@H](C)CO)C(=O)c2cc(NS(=O)(=O)c3cccs3)ccc2O1", "relative growth": "inactive: 1.02"}, {"smiles": "CC(C)NC(=O)N(C)C[C@@H]1OCCCC[C@@H](C)Oc2ccc(NC(=O)Nc3ccccc3)cc2C(=O)N([C@@H](C)CO)C[C@H]1C", "relative growth": "inactive: 1"}, {"smiles": "C[C@H](CO)N1C[C@H](C)[C@@H](CN(C)C(=O)Nc2ccccc2)Oc2ccc(NC(=O)CCN3CCOCC3)cc2C1=O", "relative growth": "inactive: 0.964"}, {"smiles": "Cc1noc(C)c1NC(=O)Nc1ccc2c(c1)C(=O)N([C@@H](C)CO)C[C@@H](C)[C@@H](CN(C)S(=O)(=O)c1ccccc1)OCCCC[C@H](C)O2", "relative growth": "inactive: 0.998"}]}]}
